Measurements as given in PubChem BioAssay AID1159614 (National Center for Advancing Translational Sciences (NCATS), 2016).
The whole screen tested about 45,000 compounds, of which about 65 (0.1%) were called active. The call rests on the fitted dose curve; in most records, active means well fitted activation curve with a large enough effect; inconclusive means small, poorly fitted or top-dose-only effect; inactive means no such curve, though single readings can be large or run the other way. Some of the results follow.

biological target: Galactocerebrosidase (Homo sapiens) (UniProt P54803); assay: A Novel Cell-Based Assay to Identify Small Molecules for B -Galactocerebrosidase; details: 145M-Twi-hGALC-G270D cells (Twitcher mouse brain line with human GALC G270D), HMU-beta-Gal fluorescence, 48 h; series mostly up to 57.5 µM; activation: at the top concentration; further: 0% is about no effect; nearly all actives have a fitted effect of over 65% in size
UniProt P54803, sequence (P54803 whole entry, looked up): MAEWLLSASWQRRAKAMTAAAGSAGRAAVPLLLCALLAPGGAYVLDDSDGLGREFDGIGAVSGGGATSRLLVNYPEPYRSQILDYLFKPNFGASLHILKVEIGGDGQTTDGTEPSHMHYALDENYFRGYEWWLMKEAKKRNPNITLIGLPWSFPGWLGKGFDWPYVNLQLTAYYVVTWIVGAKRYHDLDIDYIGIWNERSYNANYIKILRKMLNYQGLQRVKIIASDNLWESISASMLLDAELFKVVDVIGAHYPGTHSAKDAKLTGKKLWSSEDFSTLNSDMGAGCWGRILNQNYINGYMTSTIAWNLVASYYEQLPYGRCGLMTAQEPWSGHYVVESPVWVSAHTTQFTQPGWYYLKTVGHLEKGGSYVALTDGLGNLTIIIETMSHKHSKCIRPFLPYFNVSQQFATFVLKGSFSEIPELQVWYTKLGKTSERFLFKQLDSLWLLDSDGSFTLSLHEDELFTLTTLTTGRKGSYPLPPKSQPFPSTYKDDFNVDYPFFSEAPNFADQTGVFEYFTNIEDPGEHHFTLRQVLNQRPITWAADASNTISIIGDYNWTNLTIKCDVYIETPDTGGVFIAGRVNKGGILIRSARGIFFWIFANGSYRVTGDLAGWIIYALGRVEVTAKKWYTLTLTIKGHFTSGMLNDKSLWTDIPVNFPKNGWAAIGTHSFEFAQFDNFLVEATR
In short: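 Brain-derived Twitcher mouse 145M-Twi cells stably expressing human GALC-G270D or wild-type GALC, treated live, then residual GALC activity read by fluorescence of HMU-b-Gal substrate (0.1 mM final) in citrate-phosphate buffer pH 5.2 with sodium taurocholate. Signal increase indicates enhancement.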

SMILES | activation
CCOc1ccc(/C=C/c2nc(C#N)c(NC(C)CC)o2)cc1 (stereo not drawn) | inactive: -11.5%
CCOc1ccc(Sc2cc(C(=O)NC(C)CC)c3ccccc3n2)cc1 (stereo not drawn) | inactive: -6.91%
O=C(Cn1ncc2c3ccccc3n(Cc3ccc(Cl)cc3)c2c1=O)NCc1cccs1 | inactive: -10.2%
COc1ccc(N2CCN(S(=O)(=O)c3ccc(OC)c(-c4noc(C)n4)c3)CC2)cc1 | inactive: -18.2%
COc1ccc(-c2cn3nc(N4CCC(C(=O)Nc5cccc(OC)c5)CC4)sc3n2)cc1 | inactive: 3.31%
CC1CN(C(=O)N2CCC(C(=O)NCCC3=CCCCC3)CC2)c2cc(Cl)ccc2O1 (stereo not drawn) | inactive: -8.41%
Cc1ccc(C2CC(=O)N(Cc3ccccc3)c3c2c(C)nn3-c2nc(C)cc(C)n2)cc1 (stereo not drawn) | inactive: -9.34%
COc1ccc(NC(=O)CSc2nc3ccncc3[nH]2)c(OC)c1 | inactive: -11.9%
Cc1cc(NC(=O)CSc2nc3c([nH]c4ccccc43)c(=O)n2-c2ccccc2)no1 | inactive: -0.0292%
O=c1cc(-c2ccc(F)cc2)nc(SCc2nc(-c3cccc(Cl)c3)no2)[nH]1 | inactive: 5.51%
O=C(C1CCCN(S(=O)(=O)c2ccc(Br)s2)C1)N1CCN(c2ccc(F)cc2)CC1 (stereo not drawn) | inactive: -1.15%
CCc1ccc(NC(=O)c2ccc(F)c(S(=O)(=O)N(C)C3CCCCC3)c2)cc1 | inactive: 3.27%
CCc1ccc(NC(=O)CSc2nccn2-c2cccc(C)c2C)cc1 | inactive: -41.8%
Cc1ccc(C)n1-c1c(C(=O)NCCCN2CCN(c3ccc(F)cc3)CC2)sc2ncccc12 | inactive: -10.9%
O=C(C1CCN(S(=O)(=O)Cc2ccccc2)CC1)N1CCN(c2ccc(F)cc2)CC1 | inactive: -22.9%
Cc1ccc(Cl)cc1-n1ncc2c(NCCCn3ccnc3)ncnc21 | inactive: -19.8%
Cc1ccc2c(=O)cc(C(=O)Nc3sc4c(c3C(N)=O)CCCC4)oc2c1 | inactive: -24.2%
Cc1ccc2oc(-c3cc(NC(=O)c4ccc5c(c4)OCCO5)cc(C)c3O)nc2c1 | inactive: -7.6%
COc1cc(NC(=O)c2nc3ccccc3nc2C)cc(OC)c1OC | inactive: -12.3%
COc1ccc(C2C(=O)N(C3CCCCC3)CC(=O)N2CCc2ccc(OC)c(OC)c2)cc1 (stereo not drawn) | inactive: -3.59%
Cc1ccc(C)c(CN2C(=O)C3(c4ccccc42)N(c2cccc(C(F)(F)F)c2)C(=O)CS3(=O)=O)c1 (stereo not drawn) | inactive: 11.7%
Cc1ccc(Cl)cc1N1CCN(C(=O)c2cccn3c(=O)c4cc(Cl)ccc4nc23)CC1 | inactive: -2.91%
Cc1ccccc1OCc1ccc(-c2nc(C#N)c(N3CCN(C)CC3)o2)o1 | inactive: -28.7%
Cc1ccc(-n2nc(C(=O)Nc3ccc(Cl)cn3)c3c4ccccc4n(C)c3c2=O)cc1 | inactive: -18.1%

SMILES | activation
CC1=C(C(=O)OCC(C)C)C(c2ccc(OCc3ccccc3)cc2)N2C(=O)CCSC2=N1 (stereo not drawn) | inactive: -11.9%
COc1cc(CN(C(=O)c2cccc(Cl)c2)c2ccccn2)cc(OC)c1OC | inactive: -31.1%
CCC(C(=O)N1CCN(c2ccccc2F)CC1)n1nc(C)c2sc3ccccc3c2c1=O (stereo not drawn) | inactive: -8.76%
COc1ccc(NC(=O)CCn2nc(-c3ccccc3OC)c3c(C)cc(C)nc32)cc1 | inactive: -28.5%
Cc1c(C(=O)OCC2CCCCC2)[nH]c2c1C(=O)CC(c1ccc(Cl)cc1)C2 (stereo not drawn) | inactive: -15.2%
Cc1nnsc1C(=O)Oc1ccc(C(C)C)cc1 | inactive: -18.7%
Cc1cccc(NC(=O)CSc2nc(C3CCCC3)nc3c2c(=O)n(C)c(=O)n3C)c1C | inactive: -0.532%
COc1cccc(CNC(=O)C(NS(=O)(=O)c2ccc3c(c2)oc(=O)n3C)C(C)C)c1 (stereo not drawn) | inactive: -16.7%
COc1ccc2c(c1)-c1nc(NC(=O)c3ccccc3F)sc1CC2 | inactive: -29.2%
CCN(CC)C(=O)c1sc2c(c1C)c(=O)n(-c1ccc(C)c(C)c1)c(=O)n2Cc1cc(=O)n2c(C)cccc2n1 | inactive: -5.09%
CCn1c(=O)cc(OCC(=O)NCc2ccccc2Cl)c2ccccc21 | inactive: -9.05%
COc1ccccc1NC(=O)Cn1c(=O)n(CCc2ccccc2)c(=O)c2c3c(sc21)CN(C(C)=O)CC3 | inactive: -3.48%
Cc1nnc(SCc2nc(-c3ccc(Cl)cc3)no2)n1-c1ccc(F)cc1 | inactive: 0.612%
COc1ccc(CNC(=O)CSc2ncc3c(n2)-c2cc(Cl)ccc2N(Cc2ccccc2)S3(=O)=O)cc1OC | inactive: -1.8%
CCC(=O)OCc1cnc(C)c2oc(=O)c(C(=O)Nc3ccccc3C(F)(F)F)cc12 | inactive: -14.3%
O=c1cc(-c2ccccc2)nc2cc(-c3ccc(F)cc3)[nH]n12 | inactive: -0.315%
Cc1ccc(S(=O)(=O)N2CCc3cc(C(=O)Nc4ccc(C)c(C)c4)ccc32)cc1 | inactive: -10.1%
Cc1cccc(N(C)C(=O)CN(C)S(=O)(=O)c2ccc3[nH]c4c(c3c2)CCCC4)c1 | inactive: -1.03%
COc1cc2ccccc2cc1C(=O)Nc1cc(-c2nc3ccccc3o2)ccc1C | inactive: -9.97%
Cc1ccc(Cn2cc(/C=C(/C#N)C(=O)Nc3cccc(Cl)c3)c3ccccc32)cc1 | inactive: -14.2%
O=C(c1ccccc1)n1nc(-c2ccco2)nc1NCc1cccs1 | inactive: -6.36%
O=C(CCSCc1ccccc1F)N1CCN(c2ccc(Cl)cc2)CC1 | inactive: -19.5%
COc1ccc(-c2nc3ccccc3o2)cc1NC(=O)CSc1ccc(Cl)cc1 | inactive: -11.3%
COc1ccc(OC)c(CCNC(=O)CN2C(=O)COc3ccc(S(=O)(=O)N4CCC(C)CC4)cc32)c1 | inactive: -3.52%
